# In article PMC9866728, “Dosing Methods to Enable Cell-Based In Vitro Testing of Complex Substances: A Case Study with a PAH Mixture” (Toxics, 2022):
# Conditions: STOCK_10_R1-R3 (replicates) of the block 10 ug/mL MAF, 24 hr exposure; raw GC-MS/MS analyte/ISTD response ratio
row,Compound,"ISTD Resp. Ratio, stock"
1,Cc1cccc2ccccc12 [1-Methylnaphthalene],233.459
2,Cc1ccc2ccccc2c1 [2-Methylnaphthalene],233.459
3,c1ccc2cc3ccccc3cc2c1 [Anthracene],241.043
4,c1ccc2c(c1)-c1cccc3c1c-2cc1ccccc13 [Benzo[b]fluoranthene],814.16
5,"c1cc2ccc3ccc4ccc5cccc6c(c1)c2c3c4c56 [Benzo[g,h,i]perylene]",426.016
6,c1ccc2c(c1)ccc1c3ccccc3ccc21 [Chrysene],487.585
7,"c1ccc2c(c1)ccc1cc3c(ccc4ccccc43)cc12 [Dibenzo[a,h]anthracene]",175.615
8,"c1ccc2c(c1)-c1ccc3ccc4cccc5cc-2c1c3c45 [Indeno[1,2,3-cd]pyrene]",389.481
9,c1cc2cccc3c4cccc5cccc(c(c1)c23)c54 [Perylene],908.239
10,c1cc2ccc3cccc4ccc(c1)c2c34 [Pyrene],504.073
